This is an account of results in the supplement of paper PMC11417369.

This is one part of the list.

The test system of the experiment is PfSIP2 AP2 domain 1 (GST-tagged). In words: gcPBM binding intensity (ln(normalized median fluorescence intensity)); higher = stronger DNA binding. The essentials: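 For binding intensity, the highest Masliner-normalised natural-log median intensity across replicate spots of either probe orientation was taken. Protein bound to the array was stained with Alexa488 anti-GST antibody and scanned at 488 nm. The protein, GST-tagged P. falciparum DNA-binding domains from E. coli at about 25 μg on average, had been applied for 1 h to an Agilent 4 × 180k array of primer-extended double-stranded 36-bp intergenic genomic probes and negative controls.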
With “TATATATTAATCAAAGTGCAATAATAAAATAAAAGT [GTGCAC_site9490]”, the “gcPBM binding intensity (ln)” value turned out to be 8.38.
The same measure for “TAACTTTATTTTCCTGTACACACATTTGACATATTA [CACACA_site9116]”: 7.22.
The value for “TCAAATTACGTAAGAACATGCGATATAAGAAATACG [TGCATGCA_site691]” was 7.15; that for “CTCTAATTAATATTTGTACACACATATTTAACCTAC [CACACA_site9043]” was 7.19; that for “TTTATACAAAAGAACAGTACAATAAAGGATTTATGA [XGTACX_site811]” was 6.7.
“ATATAAAAAATATAAGGTACACATATATGTAGATAT [XGTACX_site6792]”: the “gcPBM binding intensity (ln)” value is 7.28.
The same measure for “TAAATAAAATACAAATGTACATAAATAATAAATATA [XGTACX_site1813]”: 7.22; for “CATATTCCCCCCCACACACACACACGCATACATACC [CACACA_site7148]”: 10.1; for “AATTATTTTAAATATTGTACTATTACAGAATGGTGT [XGTACX_site5693]”: 7.51.
The value for “CTTGGGAAGTATTCAGTGCAAAATATAAGCAGGTCA [GTGCAC_site9758]” was 7.75.
The value for “TATATTATCAAAATGGTGCAATAATTTCTATATTAT [GTGCAC_site9772]” was 9.9.
On to “AAAAGAAATAAGGATACACACTATTGATAAAAGTAG [CACACA_site4309]”, for which the “gcPBM binding intensity (ln)” value came out at 7.15.
The same measure for “TCGTGGGAAAATATTACACACATTTACTATAGTATC [CACACA_site5836]”: 6.79; for “TATTACAAATAATACCGTACACAAATGTTTTTTTAT [XGTACX_site7977]”: 6.85.
The same measure for “ATATATATATTGAAAAGTACATATATATATATATTA [XGTACX_site1560]”: 8.75.
The value for “TGGATAATCAAAAATTGTACAAGTGTTGTTATTGGT [XGTACX_site8010]” was 7.23; that for “ACCGGTGGAACGTTTTGTACATATATAATAATATAT [XGTACX_site2143]” was 7.04; that for “CTTTTATTGCTCTATATGCACACCTTAATTCTTCAT [CACACA_site2195]” was 7.86.
Take “AATGGGTTAGCACATACACACCAATATATTATAGAT [CACACA_site7444]”: the “gcPBM binding intensity (ln)” value was 6.85.
Turning to “GCAAAATTTCCTAAGGTGCTTTTATTTTACACCGTT [GTGCAC_site9923]”, the “gcPBM binding intensity (ln)” value was 7.8.
The same measure for “AAAACCTAAAAGTCTTAAATTTTAAATATACCTACA [GTGCAC_negctrl_site492]”: 6.6; for “TTTATTACCATATTTTGTACACACATCTTTATCTCA [XGTACX_site6842]”: 7.16.
Regarding “ACTCTATACATCTAATGTACATGGAAAAAAAAATTC [XGTACX_site733]”, the “gcPBM binding intensity (ln)” value worked out at 7.28.
With “ATTAAAATGGTATGTGCGCACATAATATATATATGT [GTGCAC_site9572]”, the “gcPBM binding intensity (ln)” value was 7.78.
Regarding “ATATAAATGATATGTACACACATTTATATTTATAAA [CACACA_site7600]”, the “gcPBM binding intensity (ln)” value was 7.05.
For the sequence “ACATTGACATGTCGAAGTACTCAAGAAGCATACAAT [XGTACX_site3948]”, the “gcPBM binding intensity (ln)” value stood at 6.97.
On to “TTCTTACATAAAATATCACACACATAAAAAAACAAT [CACACA_site8576]”, for which the “gcPBM binding intensity (ln)” value stood at 7.36.
The value for GTAATAAGAATTATAGTGCAATGTAATACATTTATA was 7.97; that for “TGGAAAATTATTAACACACACATATAAATATATATA [CACACA_site46]” was 7.23; that for “TAATTTGAACGGTACAGTACTCTTTTTCTTTTTCAT [XGTACX_site5534]” was 6.66.
Consider “ATATATTTTTTCAATTGTACGTTTTAATAATATTTA [XGTACX_site2130]”, for which the “gcPBM binding intensity (ln)” value was 7.17.
The value for “AATACAACATAATGAAGTACTGTATTTTATATTACT [XGTACX_site4885]” was 6.82; that for “ATGAAATCTTTAGAATATAGATGATGTTATTTAATT [XGTACX_negctrl_site511]” was 6.68.
“TTTCTTTGAATAAATACACACGAGAAATGAAAGTAG [CACACA_site8490]”: the “gcPBM binding intensity (ln)” value was 7.6.
Take “TAAAGGAGCCTATGAACACACACATGTACTTATATT [CACACA_site9351]”: the “gcPBM binding intensity (ln)” value came out at 6.85.
With “AATTGTTTGTTTGGGTGTACATGGTTCTATATAAAT [XGTACX_site7940]”, the “gcPBM binding intensity (ln)” value stood at 7.32.
Regarding “AATAAAATATAAACATTATATATATATATATATATA [GTGCAC_negctrl_site58]”, the “gcPBM binding intensity (ln)” value was determined as 9.92.
The value for “ATTTTTTCTTTTTTTTTTCCGTTTTTTTGGACATTT [CACACA_negctrl_site1174]” was 6.8; that for “ATAAAAAATAAATAAGGTACAGAACATTTATACATT [XGTACX_site1783]” was 6.84; that for “AAATTAAACAATAAATGTACATATATATTTGTATAT [XGTACX_site1092]” was 7.12.
Regarding “AACAAGGTATTAGGGTGTACTATATATATTTATATT [XGTACX_site7776]”, the “gcPBM binding intensity (ln)” value was determined as 7.02.
The value for “TAATAAAGTATTTTGCGTACTTATTTTATTCTTCTA [XGTACX_site2095]” was 6.67.
“ATTGTGTGAACAAAATGTACATTTTCTCTACATTAA [XGTACX_site1333]”: the “gcPBM binding intensity (ln)” value came out at 6.88.
Turning to “TGGCATATATATAAATGTACTTTCTTTCTATCTGTT [XGTACX_site8483]”, the “gcPBM binding intensity (ln)” value was found to be 6.75.
Take “TTATATATATGTAATTGTACTTTTAATTTTTTTTTA [XGTACX_site4357]”: the “gcPBM binding intensity (ln)” value worked out at 6.76.
In the case of “TATTTTATAATAGGCACACATATAAAAATATATATA [CACACA_site4127]”, the “gcPBM binding intensity (ln)” value was determined as 7.23.
The same measure for “TAATTTTTTTTAAATACACACTGAAATGTGAATTTT [CACACA_site4476]”: 6.57; for “ATAAAAATAAAAGACGCATGTTCTTAAAATAAGAAC [TGCATGCA_site189]”: 6.78.
The same measure for “ATATATATATATAATGCACACATTATGAATTATGTA [CACACA_site3384]”: 9.09; for “AAACAAAATGGTAACACACACATATATATATATATA [CACACA_site1939]”: 9.36; for “GTGTGATCTTTTGAAAGTACATTTTTTTTTTTTTTT [XGTACX_site6311]”: 7.28.
The value for “AGGTCATACATAAAATGTACATATATATAAATATAT [XGTACX_site7147]” was 6.97; that for “TGAACACCCAAATACACACACTCAAAAAAAAAAAAG [CACACA_site5467]” was 7.02.
As for “ACAAGAATACACCACGCACACACACTAGAGAAAAAA [CACACA_site9276]”, the “gcPBM binding intensity (ln)” value came to 7.42.
Regarding “ATTTCATTAAAGATTACATGCAATTCTATATTATTT [TGCATGCA_site260]”, the “gcPBM binding intensity (ln)” value came out at 6.87.
Regarding “AATTGCTCGATATATGCACACAGTTTTGTTATTTTT [CACACA_site8465]”, the “gcPBM binding intensity (ln)” value turned out to be 7.47.
For “AACATAAATTACTTTTTACACACTAATATAAAATAC [CACACA_site8297]”, the “gcPBM binding intensity (ln)” value came out at 7.12.
For “AAAACACGCGGACACACACACACACGCCCACATATA [CACACA_site7105]”, the “gcPBM binding intensity (ln)” value was 7.29.
“ACTTTCAAGGATGTACGTACATATGTATTTTATAAC [XGTACX_site6714]”: the “gcPBM binding intensity (ln)” value amounted to 7.59.
As for “TTTTTTATGATTAACACACACACAAAAAAAAAAAAA [CACACA_site4130]”, the “gcPBM binding intensity (ln)” value came out at 7.01.
In the case of “TCATGTAACCATTCATGTACTCAAAAAAAAAAAAAA [XGTACX_site1027]”, the “gcPBM binding intensity (ln)” value was 7.12.
Take “AAAAAAAAAACAAATACACACGCACCCAAAAAAAAA [CACACA_site8166]”: the “gcPBM binding intensity (ln)” value was determined as 10.1.
In the case of “AAATGAAAGAACAGCACACATATATATTATATATAA [CACACA_site2002]”, the “gcPBM binding intensity (ln)” value worked out at 6.85.
The same measure for “TTTTATATATATATATATATATATATATATGTATAT [CACACA_negctrl_site173]”: 8.24.
The same measure for “AACATATTTTTTCTTAAACACACACCGATATATATA [CACACA_site8919]”: 7.38.
The value for “AATATATATTTCTAAGATAAAACCCAAGGATAAAAA [CACACA_negctrl_site735]” was 6.95; that for “TCTGTAAATATGTATACACACATATCTGATCAATAT [CACACA_site5743]” was 7.03.
With “TTATGGATAAATAAATGTACGTTAAGATAACACAAA [XGTACX_site4208]”, the “gcPBM binding intensity (ln)” value turned out to be 6.89.
On to “ATATACATATGTGTGTGTACTTATATCACATTTTTG [XGTACX_site3785]”, for which the “gcPBM binding intensity (ln)” value was found to be 7.25.
On to “TCGACAAAGGCATATACACACATTTGTAACATAAAT [CACACA_site4471]”, for which the “gcPBM binding intensity (ln)” value was determined as 6.78.
The same measure for “GTTTTTTTGTTTTAGTGTACCTAAAACTGCATGTAG [XGTACX_site294]”: 7.38; for “ATTTCTCTATAGTAATGTACAAAAAAAAGGAAAAAG [XGTACX_site2757]”: 7.13; for “ACATAAAATAAATATACACACATATGTATTTATTAT [CACACA_site5648]”: 6.91.
On to “AAACCGAATTTACATGAATGTAAATTATGTTGTTTT [CACACA_negctrl_site1834]”, for which the “gcPBM binding intensity (ln)” value was found to be 6.73.
The value for “CAAGAATAAAAATACAAGCACACATGTATGAAATAT [CACACA_site3214]” was 6.98.
“TATTTAATTACATGAACACACATTATGTATTTTTAA [CACACA_site2962]”: the “gcPBM binding intensity (ln)” value turned out to be 6.92.
“TAAAAAAAAAAAACAAGTACATATATAAATATATAT [XGTACX_site7537]”: the “gcPBM binding intensity (ln)” value is 6.81.
On to “TTTTTATTTAATAATATATTAATCATATAAATAAAT [GTGCAC_negctrl_site210]”, for which the “gcPBM binding intensity (ln)” value amounted to 6.72.
The same measure for “TTTATATAAAAAAATTGTACATATTTATTATAAACA [XGTACX_site2124]”: 6.98; for “TGTATGCATATTTGATGTACGCACATATACTAATTT [XGTACX_site3159]”: 7.26; for “TATATTCTTATTATTGCATGCTGCACGAAGATTTTC [TGCATGCA_site831]”: 7.63.
As to “ATAATAAATAAAATAACACACATATATAGATATATA [CACACA_site6224]”, the “gcPBM binding intensity (ln)” value turned out to be 7.
As to “GTATGTTTGTTATGCACACAAATGCATCTTATTTCC [CACACA_site2690]”, the “gcPBM binding intensity (ln)” value came out at 8.48.
The value for “TTTAATTATAAGATAACACACAAAAAAAATAAAATA [CACACA_site254]” was 7.25; that for “AAAAAAAAAAAAAGCACACACACATATGAGTATATA [CACACA_site4682]” was 7.17.
Consider “GTGCCTTTAAAAAAAAGTACAAAAAAGAACGAATTA [XGTACX_site3714]”, for which the “gcPBM binding intensity (ln)” value was determined as 7.34.
For the sequence AATTTCAAATTGTATGTGCACATGTAGAAGTACTTT, the “gcPBM binding intensity (ln)” value came to 8.76.
For “TATATATATATATATTGTACATTTTTTTTTTTTTTT [XGTACX_site7891]”, the “gcPBM binding intensity (ln)” value was 9.62.
The value for “TTTTCATTAAATATATATGCATACCATATGTACATT [GTGCAC_negctrl_site539]” was 7.09.
